# From PMC8086230 (Acta Pharmacologica Sinica, 2021)
# Biological target: T1, rat renal 11β-HSD2 (Rattus norvegicus, UniProt P50233)
# T1 sequence (P50233 1-400): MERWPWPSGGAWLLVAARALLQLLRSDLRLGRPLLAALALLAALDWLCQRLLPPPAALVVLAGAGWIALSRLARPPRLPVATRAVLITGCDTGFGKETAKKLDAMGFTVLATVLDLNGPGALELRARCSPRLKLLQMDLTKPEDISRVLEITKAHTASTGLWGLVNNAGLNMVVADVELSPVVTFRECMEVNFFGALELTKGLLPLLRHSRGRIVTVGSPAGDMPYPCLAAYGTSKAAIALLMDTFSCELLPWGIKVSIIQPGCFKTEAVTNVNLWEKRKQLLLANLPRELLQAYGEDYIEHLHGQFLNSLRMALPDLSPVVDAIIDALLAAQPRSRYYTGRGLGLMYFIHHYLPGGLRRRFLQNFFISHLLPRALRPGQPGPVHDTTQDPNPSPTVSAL
# Details: read-out: Km for the rat enzyme
structure (smiles),measurement,value
C[C@]12CCC(=O)C=C1CC[C@@H]1[C@@H]2[C@@H](O)C[C@@]2(C)[C@H]1CC[C@]2(O)C(=O)CO [cortisol],Km,0.45 µM
